Test results published in PubChem BioAssay AID1345082 (National Center for Advancing Translational Sciences (NCATS), 2018).
Where “and” joins values, the source holds several entries; their conditions need not be identical. Identical values can stand only once. The whole screen tested about 94,000 compounds, of which about 4,000 (4.3%) were called active. Inconclusive results, whose numbers are uncertain, are shown with a selection of clear calls. The call rests on the fitted dose curve; in most records, active means well fitted inhibition curve with a large enough effect; inconclusive means small, poorly fitted or top-dose-only effect; inactive means no such curve, though single readings can be large or run the other way. Potencies of inconclusive entries are doubtful fits and often do not repeat.

assay: Cytotoxic Profiling in NIH 3T3 Cell Line of Diverse Libraries Using Quantitative High-Throughput Screening; settings: NIH 3T3 viability, CellTiter-Glo ATP luminescence, 48-72 h; series mostly up to 96.7 µM; further: nearly all actives have a fitted effect of over 55% in size
How it was run: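 Cells were seeded at 400 per well, treated with pin-transferred compound, and kept 48 or 72 hr at 37 °C before CellTiter-Glo addition and luminescence imaging of cellular ATP.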
Potency means the concentration at half of the fitted maximal effect; tags describe the fitted curve by direction and shape.

Structure (SMILES) | Potency
Cc1cccc(C(=O)N2CCC(N3C(=O)C4(CCCC4)C3c3scnc3C)CC2)c1 (configuration not stated) | inconclusive: 28.2 µM [inhibitor, partial curve, poor fit]
CN(C)C(=O)NC1CCN(C(=O)c2ccc(-c3ncccc3C#N)cc2)CC1 | inactive
CC1(C(=O)NCc2cccc(F)c2)CCCc2cnc(Nc3cccnc3)nc21 (configuration not stated) | inconclusive: 50.1 µM [inhibitor, partial curve, poor fit]
CCOC(=O)C1CCCN(C(=O)C2CCc3nnc(C4CCN(C(C)=O)CC4)n32)C1 (configuration not stated) | inactive
COc1ccccc1C(=O)N1CCCCC1c1noc(COc2ccc(C)cc2)n1 (configuration not stated) | inconclusive: 50.1 µM [inhibitor, partial curve, poor fit]
CNC(=O)c1nc2cccnc2n(Cc2ccccc2)c1=O | inactive
COc1ccc(C2=NOC3(CCN([S+](=O)([O-])c4ccccc4)C3)C2)cc1 (configuration not stated) | inconclusive: 22.4 µM [inhibitor, partial curve, poor fit]
c1cc(-c2cc(-c3cn[nH]c3)c3cncn3c2)cc(N2CCOCC2)c1 | active: 25.1 µM
CCCN(C)C(=O)c1c(-c2ccccc2)noc1[C@H](C)O | inactive
O=c1cc(-c2ccncc2)oc2c(-c3cccc(CO)c3)nccc12 | active: 44.7 µM
Cc1noc(C)c1-c1cccc(CCOc2cnc3c(ccn3CC(=O)O)c2)c1 | active: 50.1 µM
CCOC(=O)C1(Cc2cccc(C(F)(F)F)c2)CCN(Cc2ccc(COC)o2)CC1 | inconclusive: 35.5 µM [inhibitor, partial curve, poor fit]
Cc1ccc(-c2cc3c(=O)n(CCNC(=O)c4cccc5[nH]ccc45)ccn3n2)cc1C | active: 31.6 µM
Fc1cccc(Nc2nc(-c3ccccc3)no2)c1 | inconclusive: 44.7 µM [inhibitor, partial curve, poor fit]
O=C(c1cnccn1)N1CCC2(CC1)NCCc1c2[nH]c2ccccc12 | inactive
CCn1ccnc1C1CCN(C(=O)CC2NC(=O)NC2=O)CC1 (configuration not stated) | inactive
O=C(NC1CCCC1)NC1CCN(c2ccc3nnc(-c4ccccc4)n3n2)C1 (configuration not stated) | inconclusive: 56.2 µM [inhibitor, partial curve, poor fit]
O=C(NC1CC1)c1nc(-c2ccc(F)cc2)c2cnccn12 | inconclusive: 35.5 µM [inhibitor, full curve] and inconclusive: 28.2 µM [inhibitor, full curve]
CN(Cc1nc(Cc2ccccc2Cl)no1)Cc1cccc2cnccc12 | inconclusive: 8.91 µM [inhibitor, full curve, poor fit]
CCNc1ncc(CN2CCCC(CCc3cccc(C(F)(F)F)c3)C2)cn1 (configuration not stated) | inconclusive: 50.1 µM [inhibitor, partial curve, poor fit]
CC(C)OC(=O)N1CCC(COc2cnc3c(ccn3CC(N)=O)c2)CC1 | inconclusive: 89.1 µM [inhibitor, partial curve, poor fit]

Structure (SMILES) | Potency
COc1ccc(NC(=O)c2cc(NC(=O)C3CC3)cc3nc(C)ccc23)cc1 | inconclusive: 70.8 µM [inhibitor, single point]
COc1ccc(-c2cc(C(=O)NCc3cc(C)on3)c3c(c2)N(C)CCO3)cn1 | inconclusive: 100 µM [inhibitor, partial curve, poor fit]
COc1cc(Cl)cc(CN2CCC(O)(c3ccccc3)CC2)c1OC | inconclusive: 56.2 µM [inhibitor, partial curve, poor fit]
COc1cc(Cl)ccc1-c1cccc(CCOc2cnc3c(ccn3CC(=O)O)c2)c1 | inconclusive: 89.1 µM [inhibitor, partial curve]
COc1cc(OC)c(NC(=O)N2CCCC2c2nncn2C2CCCC2)cc1Cl (configuration not stated) | inconclusive: 35.5 µM [inhibitor, single point]
O=C(Nc1cccc(F)c1)N1C[C@@H]2C[C@H](C1)c1c(-c3cc4ccccc4s3)ccc(=O)n1C2 | inconclusive: 79.4 µM [inhibitor, partial curve, poor fit]
COc1ccc(CNC(=O)CC2CCCCN(Cc3ccccc3)C2=O)cc1 (configuration not stated) | inconclusive: 44.7 µM [inhibitor, partial curve, poor fit]
CC(Cn1cccn1)Nc1ccc(-c2nc(COc3ccccc3)no2)cn1 (configuration not stated) | inconclusive: 44.7 µM [inhibitor, partial curve, poor fit]
COc1cccc(-c2ccc(CN3CCCC3C(=O)NCc3ccccc3Cl)cc2)c1 (configuration not stated) | active: 39.8 µM
COC[C@@H]1[C@H](C(=O)NCc2cc(OC)ccc2OC)CCC(=O)N1C | inconclusive: 50.1 µM [inhibitor, partial curve, poor fit]
COc1ccc(CN2Cc3[nH]cnc3C[C@H]2C(=O)N(C)Cc2ccccc2)c2ccccc12 | inconclusive: 50.1 µM [inhibitor, partial curve, poor fit]
COc1ccccc1N1CCN(CC[C@@H]2CC[C@H](O)[C@@H](C(=O)NC3CCCCC3)O2)CC1 | inactive
CC1=C[C@@H](CO)[C@H](C(C)C)C[C@H]1Cc1nnc(C(C)(C)C)o1 | inconclusive: 89.1 µM [inhibitor, single point]
CCC1Oc2ccc(NS(=O)(=O)c3ccccc3)cc2CN(Cc2ccc(F)cc2)C1=O (configuration not stated) | inconclusive: 35.5 µM [inhibitor, partial curve]
CC1(COc2cccnc2)COc2ccc(C(=O)NCCc3ccccc3)cc2N1 (configuration not stated) | inconclusive: 56.2 µM [inhibitor, partial curve, poor fit]
CC1=C[C@@H](CN2CCN(CCO)CC2)[C@H](C(C)C)C[C@H]1Cc1nnc(Cc2c[nH]c3ccccc23)o1 | active: 28.2 µM
CC1(c2ccccc2)N(Cc2ncccn2)C(=O)OC12CCN(C(=O)c1ccc(Oc3ccccc3)cc1)CC2 (configuration not stated) | active: 39.8 µM
COc1ccc(NC(=O)O[C@@H]2CO[C@H]3[C@@H]2OC[C@@H]3NC(=O)NC2CCCCC2)cc1 | inconclusive: 100 µM [inhibitor, partial curve, poor fit]
COC[C@@H]1CN(Cc2ccc(F)c(OC)c2)C[C@H]1C(=O)NC1CC1 | inconclusive: 70.8 µM [inhibitor, partial curve, poor fit]
COc1ccc(Cc2nnc3ccc(C(=O)NCCc4ccc(Cl)cc4)cn23)cc1 | inconclusive: 44.7 µM [inhibitor, partial curve, poor fit]
CN1[C@@H](CCC(=O)N2CCC(O)CC2)CNC(=O)[C@@H]2[C@H]1CCN2Cc1ccc(O)cc1 | inactive

Structure (SMILES) | Potency
Cc1noc(C)c1-c1cc2cc(CO)oc2c(NC2CCOCC2)n1 | active: 25.1 µM
Cc1nc2c(c(-c3ccc(O)cc3)n1)CN(Cc1ccc(OC(F)(F)F)cc1)CCC2 | inconclusive: 44.7 µM [inhibitor, partial curve, poor fit]
CC(C)CNc1ccc2c(n1)C(C)(C(=O)Nc1ccn(C)n1)CN(Cc1ccccc1)C2 (configuration not stated) | inconclusive: 44.7 µM [inhibitor, full curve]
COc1ccccc1N1CCN(C(=O)Cn2cccc2-c2nc(-c3ccccc3)no2)CC1 | inconclusive: 35.5 µM [inhibitor, partial curve]
Cc1cnc(CC2CCCN(Cc3ccc(F)cc3F)C2)n1Cc1ccccc1 (configuration not stated) | inconclusive: 44.7 µM [inhibitor, partial curve, poor fit]
CCc1cc(CNC(=O)C2CCN(c3nc(-c4ccccc4)nc4c3CCC4)CC2)on1 | inconclusive: 89.1 µM [inhibitor, partial curve, poor fit]
Cn1ncc2c(C(=O)Nc3cccc(C(F)(F)F)c3)cc(-c3ccc(C(F)(F)F)cc3)nc21 | active: 7.94 µM
N#Cc1cccc(C(=O)NC2CCN(c3cc(-c4ccc(Cl)cc4)[nH]n3)C2)c1 (configuration not stated) | inconclusive: 39.8 µM [inhibitor, partial curve, poor fit]
CCc1ncc(C(=O)N2CCN(Cc3ccccc3C#N)CC2)cn1 | inactive
COc1ccccc1-c1cccc(CN2CCCC(C(=O)N3CCCC3)C2)c1 (configuration not stated) | inconclusive: 56.2 µM [inhibitor, partial curve, poor fit]
COc1ccc2c(c1)c(CN1CCCC(c3nc(C(C)C)no3)CCNC(=O)CC1)cn2C(C)C (configuration not stated) | inconclusive: 44.7 µM [inhibitor, partial curve, poor fit]
O=C(c1ccccc1F)N1CCC(C(=O)N2CCCC(c3nc4ccncc4[nH]3)C2)CC1 (configuration not stated) | inactive
Cn1cnc2ccc(-c3ccsc3)nc2c1=O | inconclusive: 126 µM [inhibitor, single point]
COCCCNC(=O)C(NC(=O)c1ccccc1C)C1CCN(C(=O)CCc2ccccc2)CC1 (configuration not stated) | inactive
O=C(NC1CC1)C1CCc2nnc(C3CC3)n21 (configuration not stated) | inactive
CCc1nc2c(c(-c3ccc(Cl)cc3)n1)CN(C(=O)Nc1ccccc1)CC2 | inconclusive: 50.1 µM [inhibitor, partial curve, poor fit]
CC(=O)N1CCC(N2CCC[C@H]2c2nc(-c3ccc(-c4ccncc4)nc3)no2)CC1 | inconclusive: 112 µM [inhibitor, single point]
Cc1cccc(NC(=O)N2CCC(c3cc(-c4cccc(C)c4)n[nH]3)CC2)c1 | inconclusive: 44.7 µM [inhibitor, partial curve, poor fit]
Cc1ncoc1C(=O)N1CCC(F)(c2nc(-c3ccncc3)no2)CC1 | inactive
CC1CCN(c2ncncc2-c2nc(-c3ccccc3)no2)CC1 | inconclusive: 50.1 µM [inhibitor, partial curve, poor fit]
